The whole screen tested about 200,000 compounds, of which about 4,500 (2.2%) were called active. Inconclusive results, whose numbers are uncertain, are shown with a selection of clear calls. The call rests on the fitted dose curve; in most records, active means well fitted inhibition curve with a large enough effect; inconclusive means small, poorly fitted or top-dose-only effect, or effect the other way; inactive means flat fitted curve, though single readings scatter. Potencies of inconclusive entries are doubtful fits and often do not repeat.
Target: Cruzipain (Trypanosoma cruzi) (UniProt P25779)
Assay: qHTS Assay for Promiscuous and Specific Inhibitors of Cruzain (without detergent); further: nearly all actives have a fitted effect of over 40% in size;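 on max response, negative = inhibition: plate controls were enzyme without inhibitor for no effect and buffer without enzyme for full effect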
Details: purified cruzain, Z-FR-AMC fluorescence, no detergent
Outline: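 Detergent-free condition (0.00005% Triton X-100) in acetate buffer pH 5.5 with DTT. 1.5 nM enzyme and compound were pre-mixed 15 min, then 2 uM Z-FR-AMC substrate added; reaction progress from fluorescence change between first and third reads (60 s).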
Potency means the concentration at half of the fitted maximal effect; tags describe the fitted curve by direction and shape.

Sequence of UniProt P25779 (P25779 whole entry, looked up): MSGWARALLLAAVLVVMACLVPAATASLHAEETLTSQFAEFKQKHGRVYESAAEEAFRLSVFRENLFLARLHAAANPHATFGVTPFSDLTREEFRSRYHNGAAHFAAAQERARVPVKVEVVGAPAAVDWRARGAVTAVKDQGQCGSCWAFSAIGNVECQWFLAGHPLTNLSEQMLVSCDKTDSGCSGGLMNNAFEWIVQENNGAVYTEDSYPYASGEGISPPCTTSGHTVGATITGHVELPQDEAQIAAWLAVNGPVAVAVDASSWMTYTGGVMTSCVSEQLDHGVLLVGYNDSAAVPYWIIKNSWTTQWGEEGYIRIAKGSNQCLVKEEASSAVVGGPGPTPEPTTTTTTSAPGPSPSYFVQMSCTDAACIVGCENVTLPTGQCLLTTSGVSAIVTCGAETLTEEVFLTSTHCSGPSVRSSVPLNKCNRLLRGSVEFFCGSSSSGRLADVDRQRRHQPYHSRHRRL

Q: For `CCN(CC)CCCNC(=O)CN1N=C(c2ccccc2)CCC1=O`, which max response, negative = inhibition is on record?
A: inactive: 2.55%

Q: `Cc1sc2nc(CN3CCC(C)CC3)nc(Cl)c2c1C` was tested. Which Potency did it give?
A: inconclusive: 3.98 µM [inhibitor, single point]

Q: For `Cc1ccc(-n2nc(C(=O)c3ccccc3)n3c(=O)cc(-c4ccccc4)nc23)cc1`, which Potency is on record?
A: inconclusive: 31.6 µM [inhibitor, single point]

Q: For `COc1ccc(Cn2nnc3c(=O)[nH]c(C4CCN(C(=O)c5ccc(C)cc5)CC4)nc32)cc1OC`, which Potency is on record?
A: inconclusive: 39.8 µM [activator, single point]

Q: `COc1ccc(NC(=O)Cn2c(=O)n(Cc3ccc(C(=O)NCc4ccccc4Cl)cc3)c(=O)c3ccccc32)cc1` was tested. Which Potency did it give?
A: active: 10 µM

Q: For `CS(=O)(=O)c1nc(-c2ccccc2)cc(C(F)(F)F)n1`, which Potency is on record?
A: inconclusive: 39.8 µM [activator, single point]

Q: For `Cc1ccc(NC(=O)C2CCCN2S(=O)(=O)c2ccc3c(c2)CCCC(=O)N3)cc1Cl` (stereo not drawn), which Potency is on record?
A: inconclusive: 31.6 µM [activator, single point]

Q: `Cc1ccc(-c2nnc(SCC(=O)N3CCN(c4ccccc4)CC3)o2)cc1` was tested. Which Potency did it give?
A: active: 10 µM

Q: How did the max response, negative = inhibition turn out when `COC(=O)c1cnn(-c2ccc(C(=O)Nc3cc(OC)c(OC)c(OC)c3)cc2)c1N` was run?
A: inactive: 7.7%

Q: How did the max response, negative = inhibition turn out when `CC1=C(C(=O)Nc2ccc(Cl)cc2)C(c2ccc(C(F)(F)F)cc2)n2nnnc2N1` (stereo not drawn) was run?
A: inactive: -9.64%

Q: For `CCc1cc2ccccc2nc1SCC(=O)Nc1cc(OC)c(OC)cc1C(=O)O`, which Potency is on record?
A: inconclusive: 39.8 µM [activator, single point]

Q: For `COc1ccc(OC)c(NC(=O)Cc2c(C(=O)O)n(C)c3ccc(C)cc23)c1`, which Potency is on record?
A: inconclusive: 39.8 µM [activator, single point]

Q: `COc1ccc2nc(-c3ccccc3)[nH]c2c1` was tested. Which Potency did it give?
A: inconclusive: 39.8 µM [activator, single point]

Q: For `Cc1ccc(N(C(=O)Cn2nnc(-c3ccc(C)o3)n2)C(C(=O)NC2CCCC2)c2ccco2)cc1` (stereo not drawn), which Potency is on record?
A: active: 25.1 µM

Q: `Cc1ccc2cc(CN(Cc3ccc4c(c3)OCO4)Cc3nnnn3Cc3ccco3)c(=O)[nH]c2c1C` was tested. Which Potency did it give?
A: active: 31.6 µM

Q: `Cc1ccc(-n2c(SCC(=O)NCC3CCCO3)nc3n[nH]c(C)c3c2=N)cc1Cl` (stereo not drawn) was tested. Which Potency did it give?
A: inconclusive: 31.6 µM [activator, single point]

Q: `Cc1ccc(C(=O)C(OC(=O)CNS(=O)(=O)c2ccccc2)c2ccccc2)cc1` (stereo not drawn) was tested. Which Potency did it give?
A: active: 31.6 µM

Q: `CCC1CCCCN1C(=O)Cn1c(=O)cc(C(F)(F)F)c2c(C)nn(C)c21` (stereo not drawn) was tested. Which Potency did it give?
A: inconclusive: 25.1 µM [activator, single point]

— PubChem BioAssay AID1476 (National Center for Advancing Translational Sciences (NCATS), 2009)
